This is one part of the list.
Tests used:
HSkMC = human skeletal muscle cells; assay: cytotoxicity call (relative viability < 0.9); conditions: 10 µM
HepG2 = assay: cytotoxicity call (relative viability < 0.9); conditions: 10 µM
S. aureus RN4220 = assay: growth inhibition call (relative growth <= 0.2); conditions: 50 µM

Cc1noc(C)c1NC(=O)N(C)C[C@@H]1Oc2c(NC(=O)c3ccc(-c4nccs4)cc3)cccc2C(=O)N([C@@H](C)CO)C[C@@H]1C
inactive: cytotoxicity call (HSkMC) | cytotoxicity call (HepG2) | growth inhibition call (S. aureus RN4220)

C[C@@H]1CCCCO[C@@H](CN(C)S(C)(=O)=O)[C@H](C)CN([C@@H](C)CO)C(=O)c2cc(NS(C)(=O)=O)ccc2O1
inactive: cytotoxicity call (HSkMC) | cytotoxicity call (HepG2) | growth inhibition call (S. aureus RN4220)

C[C@@H]1CN([C@@H](C)CO)C(=O)Cc2cc(NC(=O)CCCCCC(=O)Nc3ccccc3N)ccc2O[C@@H]1CN(C)C(=O)Nc1cccc2ccccc12
inactive: cytotoxicity call (HSkMC) | cytotoxicity call (HepG2) | growth inhibition call (S. aureus RN4220)

COc1ccc(S(=O)(=O)Nc2ccc3c(c2)C(=O)N([C@H](C)CO)C[C@H](C)[C@@H](CN(C)Cc2ccccc2)OCCCC[C@H](C)O3)cc1
inactive: cytotoxicity call (HSkMC) | cytotoxicity call (HepG2) | growth inhibition call (S. aureus RN4220)

COc1ccc(NC(=O)Nc2ccc3c(c2)C(=O)N([C@@H](C)CO)C[C@@H](C)[C@H](CN(C)C(=O)Nc2ccccc2)OCCCC[C@@H](C)O3)cc1
inactive: cytotoxicity call (HSkMC) | cytotoxicity call (HepG2) | growth inhibition call (S. aureus RN4220)

C[C@@H]1CN([C@@H](C)CO)C(=O)Cc2cc(NC(=O)Cn3cnnn3)ccc2O[C@H]1CN(C)S(=O)(=O)c1ccc(F)cc1
inactive: cytotoxicity call (HSkMC) | cytotoxicity call (HepG2) | growth inhibition call (S. aureus RN4220)

COc1ccc(NC(=O)N(C)C[C@@H]2OCCCC[C@@H](C)Oc3ccc(NS(=O)(=O)c4ccccc4)cc3C(=O)N([C@@H](C)CO)C[C@@H]2C)cc1
inactive: cytotoxicity call (HSkMC) | cytotoxicity call (HepG2) | growth inhibition call (S. aureus RN4220)

C[C@H]1CN([C@@H](C)CO)C(=O)Cc2cc(NC(=O)CCC(F)(F)F)ccc2O[C@H]1CN(C)Cc1ccc(Cl)c(Cl)c1
inactive: cytotoxicity call (HSkMC) | cytotoxicity call (HepG2) | growth inhibition call (S. aureus RN4220)

C[N+](C)(C)CC(=O)O
inactive: cytotoxicity call (HSkMC) | cytotoxicity call (HepG2) | growth inhibition call (S. aureus RN4220)

C(=CN1CCN(C(c2ccccc2)c2ccccc2)CC1)Cc1ccccc1
inactive: cytotoxicity call (HSkMC) | cytotoxicity call (HepG2) | growth inhibition call (S. aureus RN4220)

NCCC(O)(P(=O)(O)O)P(=O)(O)O
inactive: cytotoxicity call (HSkMC) | cytotoxicity call (HepG2) | growth inhibition call (S. aureus RN4220)

C[C@@H]1CN([C@@H](C)CO)C(=O)c2cccc(NS(=O)(=O)c3ccc(F)cc3)c2O[C@@H]1CN(C)C(=O)Nc1cccc2ccccc12
inactive: cytotoxicity call (HSkMC) | cytotoxicity call (HepG2) | growth inhibition call (S. aureus RN4220)

From the antibiotic and cytotoxicity screens of Wong et al. (2023)
